{"source": "PubChem BioAssay AID686971", "about": "(National Center for Advancing Translational Sciences (NCATS), 2013)", "note": "Hit rate of the full screen: of about 360,000 compounds, about 7,500 (2.1%) were called active. The inconclusive results got no clear call from the source; some entries with a clear call stand among them for comparison. Calls come from the whole dose curve; as a rule, active = well fitted cell-killing curve with a large enough effect; inconclusive = small, poorly fitted or top-dose-only effect, or effect the other way, or another doubt; inactive = no such curve, though single readings can be large or run the other way. No potency is given beside an inconclusive call; the fits are too rough. Potency is the fitted concentration of half-maximal effect; tags give direction and shape of the fitted curve."}
{"experiment": "qHTS for induction of synthetic lethality in tumor cells producing 2HG: qHTS for the HT-1080-IDH1KD cell line;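 for activity, negative = toxicity: 0% = DMSO wells and -100% = cell-free medium wells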", "settings": "HT-1080 IDH1 knockdown viability, ATP luminescence, 48 h; activity, negative = toxicity: at 46.1 µM (top of the series) unless noted", "method_in_brief": "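In this qHTS, HT-1080 cells depleted of IDH1 are exposed for 48 h at 37 °C to compound titrations. Toxicity is scored from CellTiter-Glo luminescence, with DMSO as full viability and medium alone as none.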"}
{"smiles": "O=C(Nc1ccccc1)N1CC=C(c2ccc(F)cc2)CC1", "Potency": "inactive"}
{"smiles": "COc1ccccc1NC(=O)CSc1ccc(-c2ccc(-n3ccnc3)cc2)nn1", "Potency": "inactive"}
{"smiles": "COCCCNc1ccn2nc(-c3ccc(CC(C)C)cc3)cc2n1", "Potency": "inconclusive [cytotoxic, single point]"}
{"smiles": "CCN(CC)S(=O)(=O)c1ccc(OC)c(NC(=S)Nc2ccc(C)c(C)c2)c1", "Potency": "inactive"}
{"smiles": "Cc1cc(C(=O)NNc2ccc(C)c(C)c2)no1", "Potency": "active: 23.1 µM"}
{"smiles": "CC(=O)Nc1ccc(OCC(O)CN2CCN(S(=O)(=O)c3ccc(NC(C)=O)cc3)CC2)cc1", "note": "(stereo not drawn)", "Potency": "inactive"}
{"smiles": "CCN(CC)C(=O)CSc1nnc2nnc3cc(OC)ccc3n12", "Potency": "inconclusive [cytotoxic, partial curve, poor fit]"}
{"smiles": "C/C(=N/N=C/c1ccc(N(C)C)cc1)c1ccccc1", "Potency": "inconclusive [cytotoxic, partial curve]"}
{"smiles": "COc1cccc(/C=C/C(=O)c2ccc3c(c2)OCCO3)c1OC", "Potency": "inconclusive [cytotoxic, single point]"}
{"smiles": "CC1(C(=O)NCc2cccc3ccccc23)CCN1Cc1ccc(-c2ccccc2)o1", "note": "(stereo not drawn)", "Potency": "inconclusive [cytotoxic, single point]"}
{"smiles": "Cc1ccc(C(=O)Nc2ccc3c(c2)OCCO3)o1", "Potency": "inconclusive [cytotoxic, single point]"}
{"smiles": "CCCCNC(=NCc1cccc(C(F)(F)F)c1)Nc1ccccc1", "Potency": "active: 23.1 µM"}
{"smiles": "CC(C)CNC(=O)C1(C)CCCN1C(=O)c1ccc2ccccc2n1", "note": "(stereo not drawn)", "Potency": "inconclusive [rising, single point]"}
{"smiles": "CCO[C@H]1OC(C(=O)O)=C[C@@H](c2cn(C(C)=O)c3ccccc23)[C@@H]1CCCO", "Potency": "inactive"}
{"smiles": "Cc1c(C(=O)OC/C(O)=C(\\C#N)c2nc3ccccc3[nH]2)oc2ccccc12", "Potency": "inconclusive [cytotoxic, single point]"}
{"smiles": "Cc1ccc(C2CC(=O)Nc3cc4c(cc32)OCCO4)s1", "note": "(stereo not drawn)", "Potency": "inconclusive [cytotoxic, single point]"}
{"smiles": "O=C1C=C(OCCCl)CC(c2cccc(Cl)c2)O1", "note": "(stereo not drawn)", "Potency": "inactive"}
{"smiles": "CC(=O)Nc1ccc(C=NNc2ccc([N+](=O)[O-])cc2S(=O)(=O)Nc2ccccc2C(=O)O)cc1", "Potency": "inactive"}
{"smiles": "COc1cc(Cl)c(C)cc1NC(=O)COC(=O)C(NS(=O)(=O)c1ccc(Cl)cc1)C(C)O", "note": "(stereo not drawn)", "Potency": "inactive"}
{"smiles": "CC(C)NC(=O)CSc1nccc(-c2cccs2)n1", "Potency": "inactive"}
{"smiles": "CN(C)CCNc1ncnc2c1ncn2[C@H]1CN(Cc2ccc(-c3ccccc3)cc2)C[C@@H](CO)O1", "Potency": "active: 20.6 µM"}
{"smiles": "Cc1ccc(NC(=O)CN(C)C(=O)COC(=O)CNS(=O)(=O)c2ccc(F)c(F)c2F)cc1", "Potency": "inactive"}
{"smiles": "CCCc1cc(O)c2c(C)cc(=O)oc2c1", "Potency": "inconclusive [cytotoxic, single point]"}
{"smiles": "CCc1c(C)nc2ccc(Br)cc2c1SCCC#N", "Potency": "inconclusive [cytotoxic, single point]"}
{"smiles": "Cc1ccc(NC(=O)CSc2ccc(C(N)=O)cc2[N+](=O)[O-])cc1", "Potency": "inconclusive [cytotoxic, single point]"}
{"smiles": "COc1ccc(NC(=O)c2cccc(NC(=O)C(C)C)c2)c([N+](=O)[O-])c1", "Potency": "inactive"}
{"smiles": "COc1ccccc1/C=C/C(=O)N1CCCC1", "Potency": "inactive"}
{"smiles": "O=C(CCC(=O)NNC(=O)COc1ccc(Br)cc1)NCc1ccccc1", "Potency": "inactive"}
{"smiles": "CC(=O)NC1=C(N(C)C2CCS(=O)(=O)C2)C(=O)c2ccccc2C1=O", "note": "(stereo not drawn)", "Potency": "inconclusive [cytotoxic, single point]"}
{"smiles": "OC[C@@H]1CN(Cc2ccc(-c3ccccc3)cc2)C[C@H](n2cnc3c(NCc4ccncc4)ncnc32)O1", "Potency": "active: 23.1 µM"}
{"smiles": "O=c1c2ccccc2nc(SCc2nc3ccccc3s2)n1CCCO", "Potency": "inconclusive [cytotoxic, partial curve]"}
{"smiles": "Cc1ccc(S(=O)(=O)/C(=C/Cl)NC(=O)c2ccccc2)cc1", "Potency": "active: 20.6 µM"}
{"smiles": "CC(C)C(=O)Nc1cccc(-c2csc(-c3ccccc3)n2)c1", "Potency": "inconclusive [cytotoxic, single point]"}
{"smiles": "O=C(C1COc2ccccc2O1)N1CCc2ccccc21", "note": "(stereo not drawn)", "Potency": "inconclusive [rising, single point]"}
{"smiles": "COc1ccccc1OCC(=O)Nc1cccc(-c2nnc(-c3ccco3)o2)c1", "activity, negative = toxicity": "inconclusive: 6.73% [cytotoxic]"}
{"smiles": "CCn1c(C)[n+](Cc2ccccc2)c2ccc(C(=O)OC)cc21", "Potency": "inactive"}
{"smiles": "S=C(Nc1cc(Cl)ccc1Oc1ccccc1)N1CCN(c2ccccn2)CC1", "Potency": "inconclusive [cytotoxic, single point]"}
{"smiles": "COc1ccc(C2c3[nH]c4ccccc4c3CCN2C(=O)c2cc3ncccn3n2)c(F)c1", "note": "(stereo not drawn)", "Potency": "inconclusive [cytotoxic, single point]"}
{"smiles": "O=C(Nc1ccccc1C(=O)O)c1ccc(Br)o1", "Potency": "inconclusive [cytotoxic, single point]"}
{"smiles": "Nc1cc(-c2ccc(Br)cc2)nn1Cc1ccccc1", "Potency": "inconclusive [cytotoxic, partial curve]"}
{"smiles": "C/C=C\\C=C/C(=O)Nc1cccc(C2=NOC3(C2)C[C@H](C(N)=O)N(C(=O)CC)C3)c1", "note": "(stereo partly drawn)", "Potency": "inconclusive [rising, single point]"}
{"smiles": "O=C(Nc1ccc2c(c1)OCCO2)C1CCN(C(=O)c2ccccc2)CC1", "Potency": "inactive"}
{"smiles": "COc1ccc(C(CNC(=O)c2ccccc2C)N2CCCC2)cc1", "note": "(stereo not drawn)", "Potency": "inactive"}
{"smiles": "CCc1nc2ccc(C(=O)NCCc3c[nH]c4ccccc34)cn2c1N(C=O)CCC(C)C", "Potency": "inactive"}
{"smiles": "CCOC(=O)c1sc(NC(=O)c2ccc3ncsc3c2)nc1C", "Potency": "inconclusive [cytotoxic, single point]"}
{"smiles": "O=C(c1ccc(Oc2ccccc2)cc1)c1nc2c(n1O)CCCC2", "Potency": "inconclusive [cytotoxic, single point]"}
{"smiles": "COc1ccc(-c2cnc(C(O)c3ccc(CN4CCCCC4)cc3)[nH]2)cc1", "note": "(stereo not drawn)", "Potency": "inactive"}
{"smiles": "COc1ccc(N(C(=O)CNC(=O)c2ccco2)C(C(=O)NCC2CCCO2)c2ccccc2)cc1OC", "note": "(stereo not drawn)", "Potency": "inconclusive [cytotoxic, single point]"}
{"smiles": "CCOc1cc(NC(=O)CCl)c(OCC)cc1NC(C)=O", "Potency": "inconclusive [cytotoxic, partial curve]"}
{"smiles": "COc1cccc(OCCN2CCN(c3ncnc4c3cnn4-c3ccccc3)CC2)c1", "Potency": "inconclusive [cytotoxic, single point]"}
{"smiles": "COC(C/C=C/C(=O)[C@H](C)OCc1ccccc1)OC", "Potency": "inconclusive [cytotoxic, partial curve]"}
{"smiles": "COc1cccc(-c2ccc(NC(=O)C3CCCN(CCCn4nc(C)cc4C)C3)cc2)c1", "note": "(stereo not drawn)", "Potency": "inconclusive [cytotoxic, single point]"}
{"smiles": "CCOC(=O)c1ccc(Oc2nc(N(C)C)nc(N(C)C)n2)cc1", "Potency": "inactive"}
{"smiles": "CCN(CC(=O)Nc1ccc2c(c1)OC(F)(F)O2)Cc1nc2ccccc2c(=O)[nH]1", "Potency": "inconclusive [cytotoxic, single point]"}
{"smiles": "COc1cc(/C=N/NC(=O)c2ccc(NC(=O)C3CCCCC3)cc2)ccc1O", "Potency": "active: 11.6 µM"}
{"smiles": "COc1cccc(/C=N/NC(=O)c2[nH]nc3c2CCc2ccccc2-3)c1", "Potency": "active: 2.06 µM"}
{"smiles": "COCCCNC(=O)CCCCCNS(=O)(=O)c1ccc(Br)cc1", "Potency": "inactive"}
{"smiles": "COc1ccc(CCN(Cc2cccs2)S(=O)(=O)c2ccc(-n3cnnn3)cc2)cc1OC", "Potency": "inconclusive [cytotoxic, single point]"}
{"smiles": "O=C(Nc1ccccc1-c1ccccc1)c1ccc(Cl)c([N+](=O)[O-])c1", "Potency": "inconclusive [cytotoxic, single point]"}
{"smiles": "COC(=O)c1ccc(Cn2cnc3c(cnn3-c3ccc(F)cc3)c2=O)o1", "Potency": "inconclusive [cytotoxic, single point]"}
{"smiles": "CCCCn1c(N)c(N(CCOC)C(=O)CSc2nnc(C)n2-c2ccc(OC)cc2)c(=O)[nH]c1=O", "Potency": "inactive"}
{"smiles": "COc1ccc(-c2nn(-c3ccccc3)cc2/C=C2/SC(=S)N(CCCC(=O)O)C2=O)c(C)c1", "Potency": "inconclusive [cytotoxic, single point]"}
{"smiles": "COc1cccc(/C=C/c2ccc3cccc(O)c3n2)c1OC", "Potency": "inconclusive [cytotoxic, single point]"}
{"smiles": "CCOC(=O)c1sc(-c2ccc(OC)cc2)cc1NC(C)=O", "Potency": "inactive"}
{"smiles": "O=C(CCl)N1CCN2C(=O)c3ccccc3C12c1ccc(Cl)cc1", "note": "(stereo not drawn)", "Potency": "active: 8.2 µM"}
{"smiles": "COc1ccc(Nc2nc(N3CCCCC3)nc3ccccc23)c(OC)c1", "Potency": "inconclusive [cytotoxic, single point]"}
{"smiles": "CC1CC2=C(NC(=S)NC2c2cccc(F)c2)/C(=C/c2cccc(F)c2)C1", "note": "(stereo not drawn)", "Potency": "inconclusive [cytotoxic, partial curve]"}
{"smiles": "COc1ccc(-c2nc3ccccn3c2NC2CCCCC2)cc1SC1CCCCC1", "Potency": "inconclusive [cytotoxic, single point]"}
{"smiles": "FC(F)Sc1ccc(NC(=S)NCC2CCCCC2)cc1", "Potency": "inconclusive [cytotoxic, single point]"}
{"smiles": "CCCCNS(=O)(=O)c1ccc2nc(SCC(=O)Nc3cc(C)cc(C)c3)[nH]c2c1", "Potency": "inconclusive [cytotoxic, single point]"}
{"smiles": "CC1(c2nnc(Cc3ccccc3)o2)CC(c2c(Cl)cccc2Cl)=NO1", "note": "(stereo not drawn)", "Potency": "inactive"}
{"smiles": "COc1ccc(Cl)cc1N(C(C)C(=O)NC1CCCC1)S(C)(=O)=O", "note": "(stereo not drawn)", "Potency": "inactive"}
{"smiles": "CCOC(=O)c1c(C=O)c(C)n(Cc2ccc(C)cc2)c1C", "Potency": "inconclusive [cytotoxic, single point]"}
